B1: CPEB3 Ribozyme (parent)
chain: UAACAGGGGGCCACAGCAGAAGCGUUCACGUCGCAGCCCCUGUCAGAUUCUGGUGAAUCUGCGAAUUCUGCUGUAUAUCUC

Read counts are not given, so values of variants with three or more changes are uncertain.

Variants of B1 are the subject of this data set. Briefly: self-cleavage, relative activity (ratio to wild type); higher = more cleavage; in vitro, sequencing. In a few lines: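 CPEB3 self-cleaving ribozyme mutant libraries were made by rounds of error-prone PCR, barcoded, and transcribed in vitro with T7 RNA polymerase for 5 hours at 37°C. Cleavage occurred during transcription and a 15 min DNase I step before EDTA stop. RNAs were reverse transcribed with template switching and Illumina-sequenced, with DNA sequencing mapping barcodes to variants. Relative activity is the variant's cleaved/total read fraction divided by wild type's (minimum 5 reads), averaged across three batches.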
For the variant UAACAAGGGGCCACAGCAGAAGCGUUCACGUCGCUGCCCCUGUCAGAUUCUGGCGAAUCUGCGAAUUCUGCUGUAUAUCUC, the self-cleavage was determined as 0.07.

For the variant UAACAAGGGGCCACAGCAGAAGCGUCCACGUCGCAGCCCCUGUCAGAUUCUGAUGAAUCUGCUAAUUCUGCUGUAUAUCUC, the self-cleavage is 0.08.

UAACAAGGGGCCACAGCAGAAGCGUUCACGUCGCGGCCCCUGUCAGAUUCUGGUGAACCUGCGAAUACUGCAGUAUAUCUC: the self-cleavage is 0.08.

Turning to UAACAAGGGGCCACAUCGGAAGCGUUCACGUCGCAGCCCCUGUCAGAUUCUGGUGAAUCAGCGAAUUCUGCUGUAUAUCUC, the self-cleavage was determined as 0.06.

Take UAACAAGGGGCCACAACAGAAGCGUUCACGUCGCAGCCCCUGACAGAUUCUGGUGAAUCUGCGAAUUCUGCUGUAUAUCUC: the self-cleavage stood at 0.14.

In the case of UAACAAGGGGCCACAGCAGAGGCGUUCACGUCGCAGCCCCUGUCAGAUUCUGGCGAAUCUGCGAAUUCUGCUGUAUAUCUC, the self-cleavage was determined as 0.1.

As to UAACAAGGGGCCACAGCAGAAGCGCUCACGUUGCAGCCCCUGUCAGAUUCUGGUGAAUCUGCGAAUUCUGCUGUAUAUCAC, the self-cleavage was 0.31.

UAACAAGGGGCCACAGCAGAAGCGUUCGCUUCGCAGCCCCUGUCAGACUCUGGUGAAUCUGCGAAUUCUGCUGCAUAUCUC: the self-cleavage came to 0.14.

UAACAAGGGGCCACAGCAGUGGCGUUCACGUCGCAGCCCCUGUCAGAUUCUGGUGAAUCUGCGAAUUCUGCUGUAUGUCUC: the self-cleavage came to 0.08.

For UAACAAGGGGCCACAGCAGAAGCAUUCACGUCGCAGCCCCUGUCAGAUUCUGGGGAGUCUGCGAAUUCUGCCGUAUAACUC, the self-cleavage came to 0.06.

Take UAACAAGGGGCCACAGCAGAAGCGUCCACGUCGCAGCCCCUGUCGGAUUCUGGUGAAUCUGCGAAUUCUGCUGUAUUACUC: the self-cleavage amounted to 0.28.

As for UAACAAGGGGCCACAGCAGAAGCGUUCCCGUCGCUGCCCCUGUCAGAUUCCGGUGAAUCUGCGGUUUCUGCUGUGUAUCUC, the self-cleavage worked out at 0.04.

For UAACAAGGAGCCACAGCAGAAGCGUUCACGUCGCAGCCCCUGUCAGAUUCUGGUGAGUCAGCGAAUUCUGCUGUAUAUCUC, the self-cleavage worked out at 0.05.

Turning to UAACAAGGGGCCACAGCAGAAGCGUUCACGUCACAGCCCCUGUCAGAUUCUGGUGAAUCCGCGAAUUCUGCUGUAUAUCUC, the self-cleavage stood at 0.07.

For the variant UAACAAGGGGCCACAGCAGAAGCGUACACGUCGCUGCCCCUGUCAGAUUCUGGUGAAUCUGCGAAUUCAGCAGUAUAUCUC, the self-cleavage was 0.05.

For UAACAAGGGGCCACAGCAGAAGCGUUCACGUCGCAGCCCCUGUCAGGUUCUGGUGAAUCUGCGAAUCCUGCUGUAUAUCUC, the self-cleavage was determined as 0.08.

For the variant UAACAAGGGGCCACAGCAGAAGCGUCCACGUCGCGGUCCCUGUCAGACUCAGGUGAAUCUGCGAAUUCUGCAGUAUAUCUC, the self-cleavage was determined as 0.2.

Take UAACAAGGGGCGACAGCAGAAGCGUUCACGUCGCAGCCCCCGUCAGAUUCUGGUGAAUCUGCGAAUUCUGCUGUAUAUCUC: the self-cleavage was 0.31.

UAACAAGGGGCCACAGCAGAAGCGUUCACGUCGCAGCCCCUGUCAAAUUCAGGUGAACCAGCGAAUACUGCCGUAUAUCUC: the self-cleavage came out at 0.17.

With UAACAAGGGGCCACAGCAGAAGCGUUCACGUCGCAGUCCCUGUCAGAUUCUGGUAAAUCUGCGAAUACUGCUGUAUAUCAC, the self-cleavage was found to be 0.15.

Consider UAACAAGGGGCCACAGCAGAAGCGUUCAUGUCGCAGCCCCUGUCAGAUUCUGGUGAAUCUGCGGAUUCUGCUGUAUAUCUC, for which the self-cleavage was 0.42.

As to UAACAAGGGGCCACAGCAGAAGCAUUCACGUCGCAGCCCCUGUCAGAUUCUGGCGAAUCUGCGAAUUCUGCUGUAUAUCUC, the self-cleavage was found to be 0.18.

As for UAACAAGGGGCCACAGCAGAAGCGUUCACGUCGCAGCGCCAGUCCGAUUCUGGUGAACCUGCGAAUGCUGCUGUAUAUCUC, the self-cleavage worked out at 0.29.

For UAACAAGGGGUCACAGCAGAAGCGUUCACGUCGCAGCCCCCGUCAGAUUCUGGUGAAUCUGCGAAUUCGGCUGUACAUCUC, the self-cleavage came out at 0.14.

Take UAACAAGAGGCCACUGCAGAAGCGCUCACGUCGCAGCCCCUGUCAGAUCCUGGUCAAUCUGCGAAUUCUGCUGUAUAUCUC: the self-cleavage turned out to be 0.06.

Consider UAACAAGGGGCCACAGCAGAAGCGUUCGCGUCGCGGCCCCUGUCAGAUUCUGGCGAAUCUGCGAAUUCUGCUGUAUAUCUC, for which the self-cleavage worked out at 0.35.

On to UAACAAGGGGCCACAGCAGAAGCGUACACGUCGCGGCCCCUGUCAGAUACUGGUGAACCAGCGAAUUCUGCUGUAUAUCUC, for which the self-cleavage stood at 0.14.

On to UAACAAGGGGCCACAGCAGAAGCGUACACGUCGCAGCCCCUGUCAGAUUCUGGUGAAUCUGCGAAUUCUGCCGUAUAUCAC, for which the self-cleavage came to 0.31.

As for UAACAAGGGGCCACAGCAGAAGCGUUCGCGUCGCAGCCCCUGUCAGAUUCUGGUGAAUCUGCGAGUUCUGCUGUGUAUCCC, the self-cleavage came out at 0.04.

UAACAAGAGGCCGCAGCAGAAGCGUUCACGUCGCAGCCCCUGUCAGAUUCUGGUGAAUCUGCGAAAUCUGCUGUAUACCUC: the self-cleavage is 0.08.

As for UAACAAGAGGCCACAGCAGAAGCGUUCACGUCGCGGCCCCUGUCGGAUUCUGGUGACUCUGCGAAUUCUGCUGUAUAUCUC, the self-cleavage was 0.06.

Regarding UAACAAGGGGCCACAGCAGAAGCGUUCGCGUCGCAGCCCCUGUCAGAUUCUGGCGAAUCUGCGAAUUCUGCUGUAUAUCUC, the self-cleavage came to 0.16.

Take UAACAAGGGGCCACAGCAGAAGCGUUCUCGUCGCAGCCCCUGUCAGAUUCUGGUGAAUCUGCGAAUUCUGUUGUAUAUCUC: the self-cleavage is 0.24.

In the case of UAACAAGGGGCCACAGCAGAAGCGCUCACGUCGCAGCCCCUGUCAGAUUCUGGAGAAUCUGCGAACUCUGCUGUAUAUCUC, the self-cleavage amounted to 0.13.

For the origin of these results see the RNAGym collection of RNA variant scans (doi:10.1093/nar/gkz1192).
